# Source: the antibiotic and cytotoxicity screens of Wong et al. (2023)
# The other results are listed elsewhere or left out.
# Test system: S. aureus RN4220
# Assay: growth inhibition call (relative growth <= 0.2)
# Conditions: 50 µM
row,SMILES,growth inhibition call
1,C[C@H]1CCCCO[C@H](CN(C)S(=O)(=O)c2ccccc2)[C@@H](C)CN([C@@H](C)CO)C(=O)c2cc(NC(=O)NC3CCCCC3)ccc2O1,inactive
2,CO[C@@H](CN(C)S(=O)(=O)c1cccc(Cl)c1)[C@@H](C)CN([C@H](C)CO)S(=O)(=O)c1cccc(Cl)c1,inactive
3,CCCC(CCC)C(=O)[O-].[Na+],inactive
4,COc1ccccc1CNC(=O)C[C@H]1C[C@H]2c3cc(NC(=O)C4CCOCC4)ccc3O[C@H]2[C@H](CO)O1,inactive
5,Cc1noc(C)c1NC(=O)Nc1ccc2c(c1)CC(=O)N([C@@H](C)CO)C[C@H](C)[C@H](CN(C)CC1CC1)O2,inactive
6,COc1cccc(CNC(=O)c2cc3c(c(-c4cccc(-c5cccc(C#N)c5)c4)n2)[C@H](CCO)N([S@@](=O)C(C)(C)C)C3)c1,inactive
7,C[C@@H]1CCCCO[C@H](CN(C)Cc2ccc(C(=O)O)cc2)[C@@H](C)CN([C@H](C)CO)C(=O)c2cc(NC(=O)NC3CCCCC3)ccc2O1,inactive
8,O=C(O)c1cncnc1N1CCCC1,inactive
9,COc1ccc(NC(=O)N(C)C[C@@H]2OCCCC[C@@H](C)Oc3ccc(NC(=O)Nc4ccccc4)cc3C(=O)N([C@H](C)CO)C[C@@H]2C)cc1,inactive
10,O=C(N[C@@H]1C=C[C@H](CC(=O)N2CCOCC2)O[C@@H]1CO)c1ccccn1,inactive
11,Cc1noc(C)c1NC(=O)Nc1ccc2c(c1)CC(=O)N([C@H](C)CO)C[C@@H](C)[C@@H](CN(C)Cc1ccc(C(=O)Nc3ccccc3N)cc1)O2,inactive
12,C[C@@H]1CN([C@@H](C)CO)C(=O)c2cc(-c3ccncc3)cnc2O[C@@H]1CN(C)S(=O)(=O)c1ccccc1,inactive
13,C[C@@H]1CN([C@H](C)CO)C(=O)CCCn2nncc2CO[C@H]1CN(C)C(=O)Nc1cccc(C(F)(F)F)c1,active
14,COC(=O)[C@H](Cc1ccccc1)N1CC2=C[C@@H]([C@@H](O)CCn3cc(-c4ccc(C(=O)NO)s4)nn3)n3c(=O)n(C)c(=O)n3[C@@H]2[C@@H](C2CC2)O1,inactive
15,O=C(NCCc1ccccc1)c1nnc[nH]1,inactive
16,CO[C@@H]1CN(C)C(=O)c2cc(NS(C)(=O)=O)ccc2OC[C@H](C)N(C(=O)c2ccc3c(c2)OCO3)C[C@@H]1C,inactive
17,COC(=O)CCc1c(C)[nH]c(=S)[nH]c1=O,inactive
18,O=C(O)CN(CCc1ccccc1)CC(=O)O,inactive
19,Cc1ccc(S(=O)(=O)N(C)C[C@@H]2Oc3ccc(NC(=O)NC(C)C)cc3C(=O)N([C@@H](C)CO)C[C@H]2C)cc1,inactive
20,O=C(CS(=O)(=O)c1cccc2nsnc12)N1CC(=O)N(CCc2ccccc2)C(=O)C1,inactive
21,O=C(C[C@H]1C[C@H]2c3cc(NC(=O)Cc4ccncc4)ccc3O[C@H]2[C@@H](CO)O1)NCc1cccc(F)c1,inactive
22,COc1ccc(NC(=O)Nc2ccc3c(c2)CC(=O)N([C@H](C)CO)C[C@@H](C)[C@@H](CN(C)C(=O)Nc2ccc(C(F)(F)F)cc2)O3)cc1,inactive
23,Cc1ccc(S(=O)(=O)N(C)C[C@@H]2Oc3ccc(NS(=O)(=O)c4cccs4)cc3CC(=O)N([C@@H](C)CO)C[C@@H]2C)cc1,inactive
24,C[C@@H]1CN([C@H](C)CO)C(=O)c2cc(NC(=O)CCCN(C)C)ccc2O[C@@H](C)CCCCO[C@@H]1CN(C)CC1CCCCC1,inactive
25,O=C(NCC[C@@H]1CC[C@H](NS(=O)(=O)c2cccc(F)c2)[C@H](CO)O1)C1CC1,inactive
26,COc1ccc2c3c([nH]c2c1)[C@H](CO)N(Cc1ccc(cc1)Cl)C[C@]13CCN(CC1)Cc1ccccc1,inactive
27,COc1ccc(S(=O)(=O)Nc2ccc3c(c2)C(=O)N([C@@H](C)CO)C[C@@H](C)[C@@H](CN(C)S(=O)(=O)c2ccc(C)cc2)O3)cc1,inactive
28,COc1ccc([C@H]2CC=CC[C@H](C)Oc3ccccc3C(=O)N(C)[C@H](Cc3ccccc3)C(=O)N2)c(OC)c1,inactive
29,C[C@H]1CN([C@@H](C)CO)C(=O)c2cccc(NS(=O)(=O)c3cn(C)cn3)c2O[C@@H]1CN(C)S(=O)(=O)c1cn(C)cn1,inactive
